# Measurements from publication PMC4336329 (PLoS ONE, 2015).
# The whole screen tested about 310,000 compounds, of which about 2,200 (0.71%) showed an effect of 50% or more. Effects have a minus sign here. The list shows a part of the results.
# Target: human ether-à-go-go-related gene (hERG) potassium channel (human, UniProt Q12809)
# Test: primary screen, population patch clamp on CHO cells stably expressing hERG
# human ether-à-go-go-related gene (hERG) potassium channel, sequence (Q12809 whole entry, looked up): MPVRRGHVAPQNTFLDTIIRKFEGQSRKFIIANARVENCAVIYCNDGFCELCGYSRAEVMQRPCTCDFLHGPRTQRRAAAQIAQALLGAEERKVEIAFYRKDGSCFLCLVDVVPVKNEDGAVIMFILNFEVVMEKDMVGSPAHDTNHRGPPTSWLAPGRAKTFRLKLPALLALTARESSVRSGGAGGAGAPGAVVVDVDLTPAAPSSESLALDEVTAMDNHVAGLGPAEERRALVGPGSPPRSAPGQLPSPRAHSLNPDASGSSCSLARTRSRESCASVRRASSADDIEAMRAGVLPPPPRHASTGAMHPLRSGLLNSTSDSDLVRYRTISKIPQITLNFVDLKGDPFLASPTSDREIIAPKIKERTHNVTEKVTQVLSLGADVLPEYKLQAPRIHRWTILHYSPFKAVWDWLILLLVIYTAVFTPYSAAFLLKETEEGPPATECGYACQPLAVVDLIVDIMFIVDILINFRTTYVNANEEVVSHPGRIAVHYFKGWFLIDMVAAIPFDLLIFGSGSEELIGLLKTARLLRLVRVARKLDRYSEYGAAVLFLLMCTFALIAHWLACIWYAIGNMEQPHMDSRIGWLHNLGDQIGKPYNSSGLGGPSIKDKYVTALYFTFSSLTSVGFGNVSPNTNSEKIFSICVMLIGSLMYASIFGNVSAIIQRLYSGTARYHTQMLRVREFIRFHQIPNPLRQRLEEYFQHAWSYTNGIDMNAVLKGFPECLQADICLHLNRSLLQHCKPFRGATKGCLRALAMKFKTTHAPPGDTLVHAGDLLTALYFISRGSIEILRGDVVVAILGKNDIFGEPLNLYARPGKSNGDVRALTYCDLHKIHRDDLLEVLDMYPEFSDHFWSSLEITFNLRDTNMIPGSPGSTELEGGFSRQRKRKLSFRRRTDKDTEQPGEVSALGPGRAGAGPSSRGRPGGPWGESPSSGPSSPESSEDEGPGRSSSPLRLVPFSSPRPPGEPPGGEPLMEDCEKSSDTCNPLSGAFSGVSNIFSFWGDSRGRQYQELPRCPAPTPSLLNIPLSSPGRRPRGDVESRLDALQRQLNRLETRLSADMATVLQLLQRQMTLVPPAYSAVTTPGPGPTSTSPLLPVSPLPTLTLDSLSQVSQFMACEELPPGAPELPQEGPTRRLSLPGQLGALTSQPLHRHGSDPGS
row,SMILES,"hERG current change (%, negative = inhibition) at 1uM [%]"
1,O[C@@H]1COC(Nc2ccc(N=Nc3ccccc3)cc2)C[C@@H]1O (some centres unmarked),13.3
2,O=C(C1CCCO1)N1CCN(S(=O)(=O)c2ccc(Cl)cc2)CC1 (centres unmarked),4.94
3,O=C(c1ccccc1)c1cccs1,10.8
4,O/C(=C\c1ccc2ccccc2n1)c1ccncc1,10.3
5,O=C(OCCc1cc2ccccc2c(=O)o1)c1cccs1,13.3
6,COc1cccc(NC(=O)CCCn2c(=O)[nH]c3ccccc3c2=O)c1,-0.0771
7,Cc1ccc(SCc2nn(C)c(Cl)c2C=O)cc1,0.227
8,CCNC(=S)N1CCC(c2nc3ccccc3s2)CC1,-0.895
9,O=C(Nc1nnc(-c2ccc3c(c2)OCCO3)o1)C1CCCCC1,5.98
10,COc1ccc(NC(=O)c2cn(C)c(=O)c3cc(OC)c(OC)cc23)cc1OC,15.6
11,Cc1cc(C)nc(NS(=O)(=O)c2ccc(NC(=O)c3ccc(O)cc3O)cc2)n1,14.4
12,COc1ccc(OC)c(NC(=O)COC(=O)c2c3c(nc4ccccc24)CCCC3)c1,-0.309
13,O=C(NCCS(=O)(=O)N1CCN(c2ccc(F)cc2)CC1)c1ccc(Br)o1,-24.1
14,Cc1n[nH]c(C)c1CCCOc1ccccc1,13.9
15,c1ccc(C2Nc3ccccc3Oc3ccccc32)cc1 (centres unmarked),13.4
16,O=C(Nc1ccc2c(c1)OCCO2)C1CCCN(S(=O)(=O)c2cccnc2)C1 (centres unmarked),7.76
17,Cc1ccccc1-c1nc(CS(=O)(=O)CC(=O)NCCc2ccccc2)c(C)o1,9.24
18,CCCOc1ccc(C2=CSC3=NCCN23)cc1[N+](=O)[O-],-68.4
19,c1csc(CNc2nc3ccccc3n2CCN2CCOCC2)c1,-9.4
20,CC1(C)CC2(CCO1)N1CC3(C)CN2CC(C)(C1)C3O (centres unmarked),12.4
21,COc1ccc(N(C(=O)c2ccco2)C(C(=O)NC2CCCC2)c2ccccc2)cc1 (centres unmarked),15
22,COCCCNC(=S)NNC(=O)c1cccnc1,15.9
23,CN(C)c1ccc([N+](=O)[O-])cc1C(=O)O,5.32

row,SMILES,"hERG current change (%, negative = inhibition) at 1uM [%]"
1,Cc1c(C(=O)N(C)CCOc2ccccc2)oc2c(Cl)cccc12,1.25
2,O=C(c1cccc2ccccc12)C1CCCN(C(=O)C2CCOCC2)C1 (centres unmarked),8.96
3,Cc1nn(C)c(C(=O)NNC(=S)Nc2ccc(Cl)cc2)c1[N+](=O)[O-],4.76
4,CCc1nnc(NC(=O)C2CCCN2C(=O)Nc2ccccc2)s1 (centres unmarked),14.1
5,Cc1ccc2c(c1)/C(=C/c1ccco1)C(=O)N2,11.4
6,CCS(=O)(=O)N1CCN(c2ccc(C(=O)N3CCOCC3)cc2[N+](=O)[O-])CC1,6.39
7,Cc1ccc(C(=O)NCCc2cccs2)cc1,13.6
8,COc1ccc(S(=O)(=O)N2CCCC2C(=O)Nc2ccc(C(C)=O)cc2)cc1 (centres unmarked),-1.27
9,CCOc1cc(-c2nc(-c3ccccc3)c(-c3cc([N+](=O)[O-])ccc3C)[nH]2)ccc1O,-0.583
10,COC(=O)c1cc(=O)nc2sc(-c3cccs3)nn12,5.86
11,O=c1c(-c2ccc(Br)cc2)[n+]([O-])c2ccccc2n1OCc1ccccc1,5.37
12,NS(=O)(=O)c1cccc(NC(=O)CSc2nnc(C3CC3)n2C2CC2)c1,11
13,O=C(CCNC(=O)c1ccccc1)N=Nc1c(O)[nH]c2ccccc12,13.6
14,CCN(CC)S(=O)(=O)c1cccc(S(=O)(=O)c2cccc(S(=O)(=O)N(CC)CC)c2)c1,7.82
15,CCN1C(=O)NC(c2cccnc2)C(C(=O)OC)=C1C (centres unmarked),2.97
16,Cc1noc(C)c1CS(=O)(=O)c1ccc([N+](=O)[O-])cc1,-1.88
17,Cc1ccc(SCC(=O)NCc2ccccc2C)cc1,0.875
18,CN(C)CC/C=C1/c2ccccc2Sc2c(O)cc(Cl)cc21,2.15
19,O=C1CC2(CCCCCC2)Oc2ccc(Cl)cc21,12
20,O=C(CCOc1ccccc1)Nc1ccnn1C1CCN(Cc2ccc(F)cc2)CC1,-8.91
21,CCOC(=O)N/N=C/C(Cl)=C/c1ccccc1,4.86
22,CCOC(=O)Cn1cnc2sc3c(c2c1=O)CCC3,10.3
23,COc1ccc(S(=O)(=O)Nc2cc3c4c(c2)CCN4C(=O)CC3)cc1,11.3

row,SMILES,"hERG current change (%, negative = inhibition) at 1uM [%]"
1,C[C@H]1CNC(=O)C(=O)N1C[C@H](Cc1ccc(O)cc1)NC(=O)CC12CC3CC(CC(C3)C1)C2,12.8
2,Cc1ccccc1NC(NC(=O)OCCn1c([N+](=O)[O-])cnc1C)C(Cl)(Cl)Cl (centres unmarked),7.21
3,COc1ccc2cc(C3C(C#N)=C(N)OC(C)=C3C(C)=O)c(Cl)nc2c1 (centres unmarked),0.403
4,O=C(O)C(=O)O.O=[N+]([O-])c1ccc(OCCCCN2CCc3ccccc3C2)cc1,-81.1
5,CCOc1c(CNCCNC(=O)c2nonc2N)cccc1OC.Cl,9.48
6,CCN1CCN(C(=O)c2ccccc2N(Cc2ccccc2)S(=O)(=O)c2ccc(OC)cc2)CC1,-21
7,CCOC(=O)C1=C(COC(=O)/C=C/c2cccc(Cl)c2)NC(=O)NC1C (centres unmarked),5.95
8,CCOc1ccc(OCC)c(S(=O)(=O)NCCCN2CCOCC2)c1,9.79
9,CCOC(=O)N1CCN(C(=O)c2cc(C)c3c(C)nn(-c4ccccc4)c3n2)CC1,-5.58
10,CCN(CC)c1ccc(-n2cc3c(=O)n(C)c(=O)n(C)c3c2)cc1,8.11
11,C/C=C/C=C/C(=O)O,9.87
12,COc1ccc(-c2oc3ccc(-c4ccc5c(c4)OCO5)cc3c2C#CC2(O)CCCCC2)cc1,7.95
13,CCn1cc(CN2CCCC(C(=O)c3ccc(-c4ccccc4)c(F)c3)C2)cn1 (centres unmarked),-12.4
14,CSc1ccccc1NC(=O)CN1CCCCC1,11.5
15,NC(=O)C1CCN(c2ncnc3c(-c4ccccc4)nsc23)CC1,12.1
16,CCN(CC)c1ccc(NC(=O)CSc2nc(C3CC3)nc3ccccc23)cc1C,6.53
17,COc1cccc(C2(C)NC(=O)N(CC(=O)c3cc(C)n(C4CC4)c3C)C2=O)c1 (centres unmarked),6.98
18,Cc1cc(=O)[nH]c(SCC(=O)Nc2ccc(S(=O)(=O)N3CCOCC3)cc2)n1,1.3
19,CC(NC=O)c1nc2ccccc2n1CCc1ccccc1 (centres unmarked),11.9
20,CC(Oc1ccc(S(=O)(=O)N2CCCC2)cc1[N+](=O)[O-])C(=O)N(C)c1ccccc1 (centres unmarked),3.29
21,COC(=O)c1ccccc1NC1OC(=O)c2ccccc21 (centres unmarked),12.1
22,O=C1CC(c2ccco2)CC(O)=C1C=NCCN1CCNCC1 (centres unmarked),9.03
23,O=C1NC(c2ccc(Br)cc2)=N/C1=C/c1ccco1,7.07

row,SMILES,"hERG current change (%, negative = inhibition) at 1uM [%]"
1,C#CCCc1cscc1/C=[N+](\[O-])c1ccc(C(=O)OCC)cc1,17.6
2,Cc1ccc(N(C(=O)c2csnn2)C(C(=O)NC(C)(C)C)c2cccnc2)cc1 (centres unmarked),4.75
3,O=c1[nH]cnc2c1ncn2[C@@H]1O[C@H](CO)[C@@H](O)[C@H]1O,5.08
4,CC(=O)CS(=O)(=O)c1ccc(Oc2ccc(S(=O)(=O)CC(C)=O)cc2)cc1,13.1
5,Cc1ccc(-n2c(C)nc3c(cnn3-c3ccc(C)c(C)c3)c2=O)cc1C,16.2
6,Cc1ccccc1Cn1nnc2c1C(=O)c1ccccc1C2=O,-0.165
7,CCOc1cccc(CN(CC)CC2CCCN(CCc3cccc(OC)c3)C2)c1O (centres unmarked),-13
8,Cc1nn(CC(=O)NNC(=O)c2cccc(Br)c2)c(C)c1[N+](=O)[O-],8.74
9,CN(CCc1ccccc1)C(=O)c1cc(COc2ccc(F)cc2Cl)on1,13.5
10,O=C(Cc1ccc(Cl)cc1)Nc1ccc(C(=O)N2CCOCC2)cc1,10.8
11,COc1ccc(/C=C2/C(=O)N(c3ccccc3)N=C2C)c(OC)c1,18.1
12,O=C(N/N=C/c1cc(Br)cs1)c1ccccc1[N+](=O)[O-],10.6
13,Cc1cc(NC(=O)COc2coc(CN3CCN(c4ccccc4F)CC3)cc2=O)no1,4.64
14,Brc1ccc(-c2c(-c3ccsc3)sc3ccccc23)cn1,14.1
15,O=C(CN1CCN(CC(=O)Nc2ccc3c(c2)OCO3)CC1)Nc1ccc(F)cc1,-83.5
16,COc1ccc(S(=O)(=O)NCCN2CCOCC2)cc1[N+](=O)[O-],14.3
17,CCOc1ccc(C(C(=O)NC2CCCC2)N(C(=O)CNC(=O)c2ccco2)c2cccnc2)cc1 (centres unmarked),10.5
18,C[C@H](NC(=O)C1CC(=O)N(c2ccc3c(c2)OCCO3)C1)C(=O)NCc1ccco1 (some centres unmarked),21.6
19,N#CCc1ccc(NC(=O)Nc2cccc3ccccc23)cc1,11.7
20,CCN(CC)C(=O)c1ccc(-c2nnc(Nc3ccc(O)cc3)c3ccccc23)cc1,17.1
